The target in this assay is hBUBR1 (human (endogenous in HeLa)) (UniProt O60566). Nature of the assay: SEC. Background: Size exclusion chromatography separates by hydrodynamic size, large species first.
Sequence of UniProt O60566 (O60566 whole entry): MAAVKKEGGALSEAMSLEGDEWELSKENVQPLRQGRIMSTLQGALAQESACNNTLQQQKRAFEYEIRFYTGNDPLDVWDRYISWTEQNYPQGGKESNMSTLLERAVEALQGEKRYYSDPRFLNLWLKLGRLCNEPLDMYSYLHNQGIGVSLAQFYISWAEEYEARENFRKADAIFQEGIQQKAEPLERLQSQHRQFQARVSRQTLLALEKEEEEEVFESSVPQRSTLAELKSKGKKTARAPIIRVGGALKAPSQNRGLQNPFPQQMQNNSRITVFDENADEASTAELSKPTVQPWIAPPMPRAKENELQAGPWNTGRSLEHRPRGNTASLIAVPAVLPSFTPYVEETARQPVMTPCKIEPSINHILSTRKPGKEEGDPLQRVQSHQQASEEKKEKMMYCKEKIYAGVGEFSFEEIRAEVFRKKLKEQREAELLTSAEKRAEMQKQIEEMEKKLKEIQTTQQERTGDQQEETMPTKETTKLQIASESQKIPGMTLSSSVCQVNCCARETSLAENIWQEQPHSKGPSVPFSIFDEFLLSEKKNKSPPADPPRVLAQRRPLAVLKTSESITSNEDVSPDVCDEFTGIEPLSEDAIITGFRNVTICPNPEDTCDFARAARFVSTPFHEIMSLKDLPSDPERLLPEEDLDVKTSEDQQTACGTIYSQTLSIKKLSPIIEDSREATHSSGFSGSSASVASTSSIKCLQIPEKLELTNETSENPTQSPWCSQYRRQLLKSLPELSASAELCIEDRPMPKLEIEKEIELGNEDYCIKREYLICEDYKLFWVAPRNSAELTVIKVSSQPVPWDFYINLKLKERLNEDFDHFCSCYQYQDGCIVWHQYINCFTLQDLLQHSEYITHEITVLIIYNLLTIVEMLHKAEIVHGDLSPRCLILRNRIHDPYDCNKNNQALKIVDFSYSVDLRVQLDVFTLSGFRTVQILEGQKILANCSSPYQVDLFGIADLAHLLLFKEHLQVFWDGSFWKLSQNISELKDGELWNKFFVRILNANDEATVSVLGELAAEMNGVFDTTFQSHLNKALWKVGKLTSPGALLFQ

“MAD2 (a stretch of the chain, chain not printed) (natural protein; other documents disagree on this pair)”: the percent of total MAD2 that comigrates with the MCC and the APC/C is < 5 % of total.

These data come from paper PMC2196190.
